Measurements: patent US20240392013A1, “IL1RAP ANTIBODIES AND USES THEREOF” (STELEXIS THERAPEUTICS, LLC, priority 2021, published 2024)

How the values were obtained:
cyIL1RAP = assay: Kinetics of IL1RAP mAbs by Octet, cynomolgus IL1RAP; type: binding
Protocol: (§1) Antibodies were diluted in kinetics buffer (0.1% BSA, 0.02% Tween-20 and 0.05% NaN3 in PBS) and loaded onto 16 channel anti-mouse IgG Fc capture sensors (AMC, Cat #2001073; Sartorius, Göttingen, Germany). Human, huIL1RAP-His (Sino Biological, lot: MB08MA1301), and monkey, cyIL1RAP-His (Lake Pharma, NY, USA; lot:16205819371) proteins were titrated starting from the highest concentration of 100 nM and followed by 50 nM and 25 nM. Purified antibodies were loaded at 5 μg/ml in kinetics buffer. The experimental parameters selected to determine the kinetic constants were Baseline for 60 s, Loading of antibody to sensor for 180 s, Association of analyte to antibody for 120 s, Dissociation for 1200 s and Regeneration in 10 mM Glycine pH 1.7 for 4×30 s.
(§2) Regeneration cycle tracking was selected for 12 cycles. Binding to human and cynomolgus IL1RAP was measured and KD (M) kinetics were calculated. Also, the disassociation rate (Kdis) (1/s) and association rate (Kon) (1/Ms) kinetics were calculated (data not shown).

[1] = system: IL1-induced NFκB activity; assay: HEK-BlueIL1β NFκB Reporter Assay; type: cell-based; details: nM range, read-out: IC50, inhibition of IL1-induced NFκB activity
Protocol: The HEK-Blue IL1β (Invivogen, Cat #hkb-il1b) cell line was used to monitor NFκB activity upon stimulation with IL1β cytokine. In this cell line the secreted embryonic alkaline phosphatase reporter gene (SEAP) is inducibly expressed under the control of IFN-β minimal promoter fused to NFκB/AP-1. Specificity to IL1β cytokine was achieved by blockage of TNF-α response. The cells were maintained in the presence of hygromycin (200 μg/ml) and zeocin (100 μg/ml).
For the functional assay, cells were plated at a density of 5×10^4 cells/well in 96-well plates. Cells were treated with each antibody at the highest concentration of 200 μg/ml followed by seven serial 1:3 dilutions and incubated for 45 minutes at 37° C./5% CO2 in humified incubator. Cells were then stimulated with IL1β ([…]) and incubated overnight at 37° C./5% CO2 in humified incubator. Every treatment was conducted in triplicates. Following, supernatants from each well were mixed with Quanti-Blue substrate (Invivogen, CA USA; Cat #rep-qb1) according to manufacturer's recommendations and secreted SEAP was measured using spectrophotometer at 650 nm.

[2] = system: IL33-induced NFκB activity; assay: HEK-BlueIL33 NFκB Reporter Assay; type: cell-based, human; details: nM range, read-out: IC50, inhibition of IL33-induced NFκB activity
Description: HEK-Blue IL33 (Invivogen, Cat #hkb-hil33) cell line was used to monitor NFκB activity upon stimulation with IL33 cytokine. The secreted embryonic alkaline phosphatase reporter gene (SEAP) is inducible expressed under the control of IFN-β minimal promoter fused to NFκB/AP-1. HEK-BlueIL33 cells were also generated upon stable transfection with human IL1RL1 (ST2) gene. Specificity to IL33 cytokine was achieved by blockage of TNF-α and IL1 response. Cells are maintained in the presence of hygromycin (200 μg/ml), zeocin (100 μg/ml) and blasticidin (10 μg/ml).
For the functional assay, cells were plated at a density of 5×10^4 cells/well in 96-well plates. Cells were treated with each antibody at the highest concentration of 200 μg/ml followed by seven serial 1:3 dilutions and incubated for 45 minutes at 37° C./5% CO^2 in humified incubator. Cells were then stimulated with IL33 (12 μM) and incubated overnight at 37° C./5% CO2 in humified incubator. Every treatment was conducted in triplicates. Following, supernatants from each well were mixed with Quanti-Blue substrate (Invivogen, Cat #rep-qb1) according to manufacturer's recommendations and secreted SEAP was measured using spectrophotometer at 650 nm.

hIL1RAP = target: T1, hIL1RAP (Homo sapiens, UniProt Q9NPH3); assay: Kinetics of IL1RAP mAbs by Octet, human IL1RAP; type: binding; set-up: extracellular domain His-tagged, Cat #10121-H08H; His; purchased Sino Biological lot MB08MA1301 (catalogue number not given)
T1 sequence (Q9NPH3 21-367 limits assumed): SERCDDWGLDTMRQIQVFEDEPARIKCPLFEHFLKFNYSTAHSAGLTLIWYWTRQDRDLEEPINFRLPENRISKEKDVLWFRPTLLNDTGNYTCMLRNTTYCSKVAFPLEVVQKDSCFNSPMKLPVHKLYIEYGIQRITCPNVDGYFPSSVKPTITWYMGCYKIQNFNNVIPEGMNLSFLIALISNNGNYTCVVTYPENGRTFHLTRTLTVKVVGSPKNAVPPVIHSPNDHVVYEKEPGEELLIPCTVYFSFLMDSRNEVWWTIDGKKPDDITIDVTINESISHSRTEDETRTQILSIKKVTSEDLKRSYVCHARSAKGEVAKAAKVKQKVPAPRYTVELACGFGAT
Protocol: as §1, §2

IC50 [1]: 0.819 nM | IC50 [2]: 4.82 nM | hIL1RAP kdis(1/s) (hIL1RAP): 0.000348 s⁻¹ | hIL1RAP kon(1/Ms) (hIL1RAP): 419500 M⁻¹ s⁻¹
B1: 74804_17E20A: anti-IL1RAP mAb; VH SEQ ID NO:17, VL SEQ ID NO:32, κ light chain (antibody, V domains shown)
VH: EVQLVQSGAEVKKPGESLKISCKGSGYSFTSYWIGWVRQMPGKGLEWMGIIWPGDSDTRYSPSFQGQVTISADKSVNTAYLQWISLKASDTAIYYCARSSGGTAMDVWGQGTTVTVSS
VL: [about 100 residues not given here]YCMQGLQTQWTFGQGTRVEIK
modifications: 74804_17E20A VH; 74804_17E20A VL
cyIL1RAP kdis(1/s) (cyIL1RAP): 0.000259 s⁻¹ | cyIL1RAP kon(1/Ms) (cyIL1RAP): 350800 M⁻¹ s⁻¹
